Measured values from the RNAGym collection of RNA variant scans (doi:10.1073/pnas.2313332121).
This sample is rich in variants without activity.

B1: TPR 5TU (parent)
chain: GGAUCUUCUCGAUCUAACAAAAAAGACAAAUCUGCCACAAAGCUUGAGAGCAUCUUCGGAUGCAGAGGCGGCAGCCUUCGGUGGCGCGAUAGCGCCAACGUUCUCAACUAUGACACGCAAAACGCGUGCUCCGUUGAAUGGAGUUUAUCAUG

Variants of: B1
Test: polymerase ribozyme fitness, log enrichment relative to wild type (log ratio); higher = more active; in vitro selection for triplet polymerase activity
In short: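 Each subunit of a heterodimeric triplet polymerase ribozyme was mutagenized into a library by PCR, transcribed, and subjected to one round of in vitro selection, run in triplicate. Libraries were annealed with a biotinylated primer, the partner subunit and triplets, incubated frozen at −7 °C, and extended constructs were gel-excised, captured on streptavidin beads and recovered by RT-PCR. Input and output libraries were sequenced on Illumina, keeping genotypes with ≥10 input reads and ≥1 read per output. Fitness is log base 2 of genotype enrichment divided by wild-type enrichment, from inverse-variance-weighted replicate averages.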

Compared with GGAUCUUCUCGAUCUAACAAAAAAGACAAAUCUGCCACAAAGCUUGAGAGCAUCUUCGGAUGUAGAGGCGGCAGCCUUCGGUGGCGCGAUAGCGCCAGCGUUCUCAACUAUGACACGCAAAACGCUUGGUCCGUUGAAUGGAGUUUAUCAUG, GGAUCUUCUCGAUCUAACAAAAAAGACAAAUCUGCCACAAAGCUUGAGAGCAUCUUCGGAUGGAGAGGCGGCAGCCUUCGGUAGCGCGAUAGCGCCACCGUUCACAACUAUGACACGCAAAACGCGUGCUCCGUUGAAUGGAGUUUAUCAUG is higher in “polymerase ribozyme fitness (log ratio)” value: ≤ -4.2 for the first, -0.841 for the second.

First: GGAUCUUCUCGAUCUAACAAAAAAGACAAAUCUGCCACAAAGCUUGAGAGCAUCUUCGGAUGCCGAGGCGGCGGCCUUCGGUGGCCCGAUAGCGCGUACGUGCUCAACUAUGACACGCAAAACGCGUGCUCCGUGGAAUGGAGUGUAUCAUG
Second: GGAUCUUCUCGAUCUAACAAAAAAGACAAAUCUGCCACAAAGCUUGAGAGCAUCUUCGGAUGUAGAGGCGGCAGCCUUCGGUGGCGCGAUAGCGCCAACGUUCUCAACUAUGACACGCAAAACGCGUGCUCCGUUGAAGGGAGUUUAUCAUG
The “polymerase ribozyme fitness (log ratio)” value of the first is lower: ≤ -4.2 for the first, 0.261 for the second.

First: GGAUCUUCUCGAUCUAACAAAAAAGACAAAUCUGCCACAAAGCUUGAGAGCAUCUUCGGAUGGGAAGGCGGCAGCCUUCGGUGGCGCGAUAUCGCCAACGUUCUCAAGUAUGACAGGCAAAACGCGUGCUCCGUUGAAUGGAGUUUAUCAUG
Second: GGAUCUUCUCGAUCUAACAAAAAAGACAAAUCUGCCACAAAGCUUGAGAGCAUCUUCGGAUGUAGAGGCGGCAGUCUUCGGAGGCGCGAUAGCGCCAACGUUCUCAACUAUGACACGCAAAACGCGUGCUCCGUUGAAUGGAGUUUAUCAUG
The “polymerase ribozyme fitness (log ratio)” value of the first is lower: ≤ -4.2 for the first, 0.455 for the second.

GGAUCUUCUCGAUCUAACAAAAAAGACAAAUCUGCCACAAAGCUUGAGAGCAUCUUCGGAUGUAGAGGUGGCUGCCUUCGGUGGCGCGAUAGAGCCAACGUUCUCACCUAUGACACGCAAAAAGCGUGCUCCGUUGAUUGGAGUUUAUCAUG and GGAUCUUCUCGAUCUAACAAAAAAGACAAAUCUGCCACAAAGCUUGAGAGCAUCUUCGGAUGCCGAGGCGGCGGCCUUCGAUGGCGGGAUAGCGCCAACGUUCUCGACUAUGACACUCAAAACGCGUGCUCCGUUGAAUGGAGUUUAUCAUG cannot be ordered by “polymerase ribozyme fitness (log ratio)” value: ≤ -4.2 for the first, ≤ -4.2 for the second.

First: GGAUCUUCUCGAUCUAACAAAAAAGACAAAUCUGCCACAAAGCUUGAGAGCAUCUUCGGAUGUAGAGGCGGCAGCCUUCGGGGGCGCGAUAGCGCCAGCGUUCUCAAGUAUGACACGCAAAACGCGUGCUCCGUUGAAUGGAGAUUAUCAUG
Second: GGAUCUUCUCGAUCUAACAAAAAAGACAAAUCUGCCACAAAGCUUGAGAGCAUCUUCGGAUGUAGAGGAGGCAGCCUUCGGUGGUGCGAUAGCGCCCACGUUCUCAACUAUGACACGGAAAACGCCUGCUCCGUUGAAUGGAGUUUAUCAUG
The “polymerase ribozyme fitness (log ratio)” value of the first is lower: ≤ -4.2 for the first, -3.97 for the second.

Going from GGAUCUUCUCGAUCUAACAAAAAAGACAAAUCUGCCACAAAGCUUGAGAGCAUCUUCGGAUGUAGAGGCGGCAGCCUUCGGUGGCGCGAUAGCGCCAACGUUCUCAACUAUGACACGCAAAACGUGUGCUCCUUUGAAUGGAGUUUAUCAUG to GGAUCUUCUCGAUCUAACAAAAAAGACAAAUCUGCCACAAAGCUUGAGAGCAUCUUCGGAUGCCGAGGCGGCGGCCUUCGGUGGCGCGAUAGCGCCAACGUUCUCAACUAUGACACGCAAAACGCGUGCUCCGUUGAAUGGAGUUUAUCAUG, the “polymerase ribozyme fitness (log ratio)” value falls from -3.67 to ≤ -4.2.

GGAUCUUCUCGAUCUAACAAAAAAGACAAAUCUGCCACAAAGCUUGAGAGCAUCUUCGGAUGCCGAGGCGGCUGCCUUCGGUGACGCGAUAGCGCCAACGUGCUCAACUAUGACAAGCAAAACGCGUGCUCCGUUGAAUGGAGUUUAUCAUG and GGAUCUUCUCGAUCUAACAAAAAAGACAAAUCUGCCACAAAGCUUGAGAGCAUCUUCGGAUGUAGAGGCGGCAGCCUUCGGUCGCGCGAUAGCGCCAACGUACUCAACUAUGACACGCAAAACGCGUGCUCCGUUGAAUGGGGUUUAUCCUG cannot be ordered by “polymerase ribozyme fitness (log ratio)” value: ≤ -4.2 for the first, ≤ -4.2 for the second.

Going from GGAUCUUCUCGAUCUAACAAAAAAGACAAAUCUGCCACAAAGCUUGAGAGCAUCUUCGGAUGAAGAGGCGGCAGCCUUCGGUGGCGCGAUACCGCCAACGUUCUCAACUAUGACACGCAAAACGCGUGCUCCGUUGAAUGGAGUUUAUCAUG to GGAUCUUCUCGAUCUAACAAAAAAGACAAAUCUGCCACAAAGCUUGAGAGCAUCUUCGGAUGAAGAGGCGGCAGUCUUCGGUGGCGCGAUACCGCCAACGUUCUCAACUAUGACACGCAAAACGCGUGUUCGGUUGAAUGGAGUUUAUCAUG, the “polymerase ribozyme fitness (log ratio)” value falls from -1.03 to ≤ -4.2.

Compared with GGAUCUUCUCGAUCUAACAAAAAAGACAAAUCUGCCACAAAGCUUGAGAGCAUCUUCGGAUGUAGAGGCGGCAGCCUUCGGUGGUGCGAUAGCGACAACGUUCUCAACUAUGACACGCAAAACGCGUGCUCCGUUGAAUGGAGUUUAUCAUG, GGAUCUUCUCGAUCUAACAAAAAAGACAAAUCUGCCACAAAGCUUGAGAGCAUCUUCGGAUGAAGAGGCGGCAGCCUUCGGUGGCGCGAUAGCGCCAACGUUCUCACCUACGACACGCAAAGCGCGUGCUCCGUUGAAUGGAGUUUAUCAUG is lower in “polymerase ribozyme fitness (log ratio)” value: -0.621 for the first, ≤ -4.2 for the second.

With GGAUCUUCUCGAUCUAACAAAAAAGACAAAUCUGCCACAAAGCUUGAGAGCAUCUUCGGAUGGAGAGGCGGCAGCCUUCGGUGGCGCGAUAUCGCCAACGUCCUCAACUAUGACACGCAGAACGCGUGCUCCGUUGAAUGGAGUUUAUCAUG the “polymerase ribozyme fitness (log ratio)” value was -1.8.
